# Measurements: the supplement of paper PMC8728848
# The other results are listed elsewhere or left out.
# Columns and labels:
# Test in all cases: glycan array binding signal (z-score within array); higher = stronger binding
# Settings in all cases: glycan notation: IUPAC condensed, linker removed
# [1] = molecular target: Gal(b1-4)GlcNAc(b1-6)Gal(b1-4)GlcNAc
# Summary of the method: (§1)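 Glycan array data were curated from 3228 arrays in the Consortium for Functional Glycomics database and kept only where the protein sequence was available. Glycan names were converted to IUPAC-condensed notation, and columns mapping to the same glycan were averaged. The binding signal is a within-array Z-score, averaged across arrays of the same protein sequence at different concentrations or buffers and across linkers. Negative Z-scores can be read as non-binding.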
# [2] = molecular target: Gal(b1-4)GlcNAc(b1-6)GalNAc
# Summary of the method: as §1
# [3] = molecular target: Gal(b1-4)GlcNAc(b1-6)[Gal(b1-3)]GalNAc
# Summary of the method: as §1
# [4] = molecular target: Gal(b1-4)GlcNAc(b1-6)[Gal(b1-4)GlcNAc(b1-3)]GalNAc
# Summary of the method: as §1
# Gal(b1-4)GlcNAc6P = molecular target: Gal(b1-4)GlcNAc6P
# Summary of the method: as §1
# Gal(b1-6)Gal = molecular target: Gal(b1-6)Gal
# Summary of the method: as §1
# Gal3S(b1-3)GalNAc = molecular target: Gal3S(b1-3)GalNAc
# Summary of the method: as §1
# Gal3S(b1-3)GlcNAc = molecular target: Gal3S(b1-3)GlcNAc
# Summary of the method: as §1
# [5] = molecular target: Gal3S(b1-3)[Fuc(a1-4)]GlcNAc
# Summary of the method: as §1
# Gal3S(b1-4)Glc = molecular target: Gal3S(b1-4)Glc
# Summary of the method: as §1
# Gal3S(b1-4)Glc6S = molecular target: Gal3S(b1-4)Glc6S
# Summary of the method: as §1
# Gal3S(b1-4)GlcNAc = molecular target: Gal3S(b1-4)GlcNAc
# Summary of the method: as §1
# [6] = molecular target: Gal3S(b1-4)[Fuc(a1-3)]Glc6S
# Summary of the method: as §1
# [7] = molecular target: Gal3S(b1-4)[Fuc(a1-3)]GlcNAc
# Summary of the method: as §1
# [8] = molecular target: Gal3S(b1-4)[Fuc(a1-3)]GlcNAc6S
# Summary of the method: as §1
# Gal3S4S(b1-4)GlcNAc = molecular target: Gal3S4S(b1-4)GlcNAc
# Summary of the method: as §1
# Gal3S6S(b1-4)GlcNAc = molecular target: Gal3S6S(b1-4)GlcNAc
# Summary of the method: as §1
# Gal3S6S(b1-4)GlcNAc6S = molecular target: Gal3S6S(b1-4)GlcNAc6S
# Summary of the method: as §1
# Gal4S(b1-4)GlcNAc = molecular target: Gal4S(b1-4)GlcNAc
# Summary of the method: as §1
# Gal4S6S(b1-4)GlcNAc = molecular target: Gal4S6S(b1-4)GlcNAc
# Summary of the method: as §1
# Gal6P(b1-4)GlcNAc = molecular target: Gal6P(b1-4)GlcNAc
# Summary of the method: as §1
# Gal6S(b1-3)GlcNAc = molecular target: Gal6S(b1-3)GlcNAc
# Summary of the method: as §1
# Gal6S(b1-3)GlcNAc6S = molecular target: Gal6S(b1-3)GlcNAc6S
# Summary of the method: as §1
# Gal6S(b1-4)Glc = molecular target: Gal6S(b1-4)Glc
# Summary of the method: as §1
# Gal6S(b1-4)Glc6S = molecular target: Gal6S(b1-4)Glc6S
# Summary of the method: as §1
# Gal6S(b1-4)GlcNAc = molecular target: Gal6S(b1-4)GlcNAc
# Summary of the method: as §1
# Gal6S(b1-4)GlcNAc6S = molecular target: Gal6S(b1-4)GlcNAc6S
# Summary of the method: as §1
# GalNAc(a1-3)Gal = molecular target: GalNAc(a1-3)Gal
# Summary of the method: as §1
# GalNAc(a1-3)GalNAc = molecular target: GalNAc(a1-3)GalNAc
# Summary of the method: as §1
# [9] = molecular target: GalNAc(a1-3)GalNAc(b1-3)Gal(a1-4)Gal(b1-4)Glc
# Summary of the method: as §1
# [10] = molecular target: GalNAc(a1-3)GalNAc(b1-3)Gal(a1-4)Gal(b1-4)GlcNAc
# Summary of the method: as §1
# GalNAc(b1-3)Gal = molecular target: GalNAc(b1-3)Gal
# Summary of the method: as §1
# [11] = molecular target: GalNAc(b1-3)Gal(a1-4)Gal(b1-4)GlcNAc
# Summary of the method: as §1
# [12] = molecular target: GalNAc(b1-3)Gal(a1-4)Gal(b1-4)GlcNAc(b1-3)Gal(b1-4)Glc
# Summary of the method: as §1
# [13] = molecular target: GalNAc(b1-3)Gal(a1-6)Gal(b1-4)Glc
# Summary of the method: as §1
# GalNAc(b1-3)GalNAc = molecular target: GalNAc(b1-3)GalNAc
# Summary of the method: as §1
# GalNAc(b1-3)GlcNAc = molecular target: GalNAc(b1-3)GlcNAc
# Summary of the method: as §1
# GalNAc(b1-4)Gal(b1-4)Glc = molecular target: GalNAc(b1-4)Gal(b1-4)Glc
# Summary of the method: as §1
binder,measurement,setting,value
DC-ASGPR S+GEE (Homo sapiens) (protein) MTRTYENFQYLENKVKVQGFKNGPLPLQSLLQRLRSGPCHLLLSLGLGLLLLVIICVVGFQNSKFQRDLVTLRTDFSNFTSNTVAEIQALTSQGSSLEETIASLKAEVEGFKQERQAVHSEMLLRVQQLVQDLKKLTCQVATINNNGEEASTEGTCCPVNWVEHQDSCYWFSHSGMSWAEAEKYCQLKNAHLVVINSREEQNFVQKYLGSAYTWMGLSDPEGAWKWVDGTDYATGFQNWKPGQPDDWQGHGLGGGEDCAHFHPDGRWNDDVCQRPYHWVCEAGLGQTSQESH,glycan array binding signal (z-score),[1],-0.354
same,glycan array binding signal (z-score),[2],3.6
same,glycan array binding signal (z-score),[3],0.136
same,glycan array binding signal (z-score),[4],-0.242
same,glycan array binding signal (z-score),Gal(b1-4)GlcNAc6P,-0.349
same,glycan array binding signal (z-score),Gal(b1-6)Gal,-0.38
same,glycan array binding signal (z-score),Gal3S(b1-3)GalNAc,-0.306
same,glycan array binding signal (z-score),Gal3S(b1-3)GlcNAc,-0.749
same,glycan array binding signal (z-score),[5],-0.233
same,glycan array binding signal (z-score),Gal3S(b1-4)Glc,-0.309
same,glycan array binding signal (z-score),Gal3S(b1-4)Glc6S,-0.253
same,glycan array binding signal (z-score),Gal3S(b1-4)GlcNAc,-0.341
same,glycan array binding signal (z-score),[6],-0.238
same,glycan array binding signal (z-score),[7],-0.333
same,glycan array binding signal (z-score),[8],-0.32
same,glycan array binding signal (z-score),Gal3S4S(b1-4)GlcNAc,-0.365
same,glycan array binding signal (z-score),Gal3S6S(b1-4)GlcNAc,-0.324
same,glycan array binding signal (z-score),Gal3S6S(b1-4)GlcNAc6S,-0.311
same,glycan array binding signal (z-score),Gal4S(b1-4)GlcNAc,-0.365
same,glycan array binding signal (z-score),Gal4S6S(b1-4)GlcNAc,-0.252
same,glycan array binding signal (z-score),Gal6P(b1-4)GlcNAc,-0.321
same,glycan array binding signal (z-score),Gal6S(b1-3)GlcNAc,-0.247
same,glycan array binding signal (z-score),Gal6S(b1-3)GlcNAc6S,-0.28
same,glycan array binding signal (z-score),Gal6S(b1-4)Glc,-0.274
same,glycan array binding signal (z-score),Gal6S(b1-4)Glc6S,-0.259
same,glycan array binding signal (z-score),Gal6S(b1-4)GlcNAc,-0.262
same,glycan array binding signal (z-score),Gal6S(b1-4)GlcNAc6S,-0.287
same,glycan array binding signal (z-score),GalNAc(a1-3)Gal,2.48
same,glycan array binding signal (z-score),GalNAc(a1-3)GalNAc,1.12
same,glycan array binding signal (z-score),[9],0.831
same,glycan array binding signal (z-score),[10],0.965
same,glycan array binding signal (z-score),GalNAc(b1-3)Gal,3.1
same,glycan array binding signal (z-score),[11],4.67
same,glycan array binding signal (z-score),[12],4.39
same,glycan array binding signal (z-score),[13],3.63
same,glycan array binding signal (z-score),GalNAc(b1-3)GalNAc,0.463
same,glycan array binding signal (z-score),GalNAc(b1-3)GlcNAc,3.07
same,glycan array binding signal (z-score),GalNAc(b1-4)Gal(b1-4)Glc,-0.034
